# Measurements as given in ChEMBL document CHEMBL1156829.
# The full ranking holds about 5,400 compounds; the median of “IFI” is about 2, and the highest 2% start at about 22. Some of the results follow.
# Test: NOVARTIS: Inhibition Frequency Index (IFI) - the number of HTS assays where a compound showed > 50% inhibition/induction, expressed as a percentage of the number of assays in which the compound was tested.
# Assay type: functional
row,SMILES,IFI [%]
1,C#CCN1c2ccccc2Sc2cccnc21,6.17
2,CCCc1cc2c(=O)c(-c3cc4ccccc4o3)coc2cc1OC(C)C(=O)OCC (centres undefined),4.76
3,C=CCOc1cccc(C(Nc2cccc(C)n2)c2ccc3cccnc3c2O)c1 (centres undefined),0
4,NN1C(=O)NC(=O)C1Nc1cccc([N+](=O)[O-])c1 (centres undefined),0
5,CN(CCCNc1ccnc2cc(Cl)ccc12)S(=O)(=O)c1ccc(Cl)c([N+](=O)[O-])c1,1.89
6,CCc1ccc2ncc(C(=O)OCCOC)c(O)c2c1,0
7,Cc1cccc(-c2nc3cc(NC(=O)c4ccc([N+](=O)[O-])o4)ccc3o2)c1,0
8,Cc1cc(C)cc(Nc2cc(C)nc3ncnn23)c1,0
9,CCC(C(=O)Nc1sccc1C#N)c1ccccc1 (centres undefined),0
10,CC(C)CNC(=O)c1cnc(NCCCN(C)C)nc1NCCc1ccccc1,0.962
11,COc1cccc2c(C)cc(NCc3ccccc3Cl)nc12,0
12,CC1=CC(=Cc2sc3ccccc3[n+]2C)C=C(C)O1,16.7
13,CCCCNC(=O)C1CCC(CN(Cc2c(Cl)cccc2Cl)S(=O)(=O)c2ccc(Br)cc2)CC1 (centres undefined),0
14,CCOc1ccc(N(C(C)=O)C2=C(N3CCN(C)CC3)C(=O)c3ccccc3C2=O)cc1,9.09
15,CCCCCN(C(=O)c1ccc(C)cc1)C(CC)c1nc2ccccc2c(=O)n1-c1ccccc1OC (centres undefined),1.89
16,CCOc1ccc(-c2nc(NC(=O)CS(=O)(=O)c3ccccc3)sc2C)cc1,0
17,Cc1ccccc1Nc1nc(NCc2ccco2)c2ccccc2n1,7.14
18,O=C(c1ccc(-n2c(SCc3ccc(Cl)cc3)nc3ccccc3c2=O)cc1)N1CCOCC1,0
19,CN(C)c1ccc(/C=C/c2cccc[n+]2C)cc1,6.3
20,Cn1c(=O)c2c(ncn2CC(O)CN=C2CCCCN2)n(C)c1=O (centres undefined),0
21,CC(C)CN(CC(=O)Nc1cc(C(C)(C)C)nn1-c1ccccc1)C(=O)Cc1cccs1,0.935
22,O=C(Nc1ccc(-c2nc3cc(-c4nc5ccccc5o4)ccc3[nH]2)cc1)c1ccc([N+](=O)[O-])cc1,5.88
23,CN(C)c1ccc(/C=C2\N=C(c3ccccc3F)OC2=O)cc1,0
24,O=c1c(-c2ccc(Cl)cc2Cl)c(C(F)(F)F)oc2c(CN3CCCCC3)c(O)ccc12,1.22
25,CCOC(=O)c1sc(=S)n(-c2ccc(N(C)C)cc2)c1N,1.54
26,COC(C)(C)CNCc1cc2cc3c(cc2n(Cc2cccc(C(F)(F)F)c2)c1=O)CCC3,2.94
27,O=C(c1cc2nc(-c3ccccc3)cc(C(F)(F)F)n2n1)N1CCN(Cc2ccccc2)CC1,1.18
28,Oc1ccc(-c2ccc(F)cc2)cc1CNCCCn1ccnc1,0.99
29,O=C(NC1CCN(CC(O)CN(Cc2ccccc2)S(=O)(=O)c2ccccc2)C1)c1ccccc1 (centres undefined),2.94
